From ChEMBL document CHEMBL4888484, “Replenishing the malaria drug discovery pipeline: Screening and hit evaluation of the MMV Hit Generation Library 1 (HGL1) against asexual blood stage Plasmodium falciparum ,using a nano luciferase reporter read-out” (2022) come the findings set out here.

In all, about 150,000 compounds went through this assay and about 540 (0.36%) showed an effect of 50% or more. This is one part of the list.

In the experiment the test system is Plasmodium falciparum. Briefly: Primary screen in NF54 nanoGlo assay, in single point, at 2uM, 72h; a lower Z score goes with more inhibition. The class given is functional, Erythrocyte. The note with it: timepoint 72 hour.
The term % Inhibition denotes the change of the read-out against control, counted positive when it falls. As to `CCc1cnc(N)nc1N[C@@H](CO)Cc1ccccc1`, the “% Inhibition” value is listed as -13% and the Z score is recorded as 1.99.
As to `CCOc1ccc(NC(=O)c2cc3c(s2)CCC3)cc1S(=O)(=O)N1CCCCC1`, the “% Inhibition” value is on record as -12% and the Z score is 2.03.
For `COc1ccc(CN2CCCn3cccc3[C@H]2c2ccc(C)c(C)c2)cc1`, the “% Inhibition” value is -11% and the Z score worked out at 1.33.
Consider `CC(C)C1OCCC1c1nc(-c2cccs2)no1` (stereo not drawn), for which the “% Inhibition” value turned out to be 8% and the Z score is -1.1.
`CCNS(=O)(=O)CCNC(=O)[C@H](C)c1ccc(Cl)s1`: the “% Inhibition” value was -3% and the Z score is given as 0.22.
On to `O=C(CCn1cnnc1)N1CCC2(CC1)c1ccccc1C[C@@H]2O`, for which the “% Inhibition” value came to 17% and the Z score was -2.19.
Consider `Cn1c2c(c(=O)n(C)c1=O)C(=O)C(=O)N(Cc1ccccc1)C2=O`, for which the “% Inhibition” value was -6% and the Z score was 0.63.
With `Cc1cc(C(=O)N2CC[C@H](CO)C2)ns1`, the “% Inhibition” value is on record as -13% and the Z score is reported as 1.78.
Regarding `CCNC(=O)N1CCN(c2nc(C)nc(C)c2Cc2ccccc2F)CC1`, the “% Inhibition” value is listed as -7% and the Z score turned out to be 0.91.
Consider `C=CCNC(=O)CN1CCCN(CC(=O)NCC=C)c2ccccc21`, for which the “% Inhibition” value is 2% and the Z score was -0.16.
The matching figures for `Cc1nc2cc(NC(=O)c3ccccc3-c3ccccc3)ccc2o1`: -11% and 1.45.
Take `COC(=O)C1(NC(=O)OC(C)(C)C)CC(CN2CCN(C)CC2)C1` (stereo not drawn): the “% Inhibition” value turned out to be 10% and the Z score was -2.05.
Turning to `CNS(=O)(=O)C1CCN(C(=O)C(C)Cc2ccc(Cl)cc2)C1` (stereo not drawn), the “% Inhibition” value is recorded as -4% and the Z score was found to be 0.66.
In the case of `COc1ccc(C(=O)N2CC[C@H](N(CCN3CCOCC3)S(C)(=O)=O)C2)c(C)c1`, the “% Inhibition” value was -8% and the Z score was 1.15.
The matching figures for `O=C(CC(F)(F)F)N1CC[C@H](Oc2cnc3ccccc3n2)C1`: 1% and -0.11.
For `CN(CC1(CO)CCC1)c1ccc(C(N)=O)cn1`, the “% Inhibition” value is reported as 0% and the Z score came out at 0.05.
As to `O=C(N[C@H]1CCN(c2cccc(OC(F)(F)F)c2)C1)C1(O)CCCC1`, the “% Inhibition” value was -13% and the Z score amounted to 1.73.
Regarding `COCCCN(C)S(=O)(=O)c1c(Cl)cccc1C(F)(F)F`, the “% Inhibition” value is reported as 2% and the Z score is -0.17.
In the case of `Cc1cnn(CCNCc2ccco2)c1`, the “% Inhibition” value is listed as -12% and the Z score is recorded as 1.21.
For `O=C(NC1CC1C1CCCCC1)N1CCCN(C2CCOCC2)CC1` (stereo not drawn), the “% Inhibition” value is -16% and the Z score is recorded as 1.42.
On to `CN=C(NCCC1=CCCCC1)NCc1nnc2n1CCCCC2`, for which the “% Inhibition” value is on record as 0% and the Z score was -0.06.
As to `COC(=O)CC(C)(C)CC(=O)N(C)c1cnc2ccccc2c1`, the “% Inhibition” value was -1% and the Z score came to 0.08.
As to `COc1cccc(Cc2nc(-c3ccc(NS(=O)(=O)c4ccc(C)cc4)cc3)no2)c1`, the “% Inhibition” value amounted to 0% and the Z score is listed as 0.03.
In the case of `CC(C(=O)Nc1nc(C2CC2)cs1)C(N)c1ccccc1` (stereo not drawn), the “% Inhibition” value stood at 3% and the Z score was -0.41.
